Results as given in the supplement of paper PMC11741623.
This is one part of the list. Interaction screen of human proteins with wild-type SARS-CoV-2 proteins by split-DHFR complementation in yeast, 1 µg/mL methotrexate. Value = fitness of the pair (three or more lineages) minus that of the viral protein without a human partner, on a scale set by negative (0) and fused positive (1) controls, mean of up to three cultures; higher = more likely to interact. Active = false discovery rate below 0.05 (one-sided t-test) in at least one culture. Nearly all pairs are not hits, and differences among them are mostly noise (correlation between cultures about 0.3); most hits were seen in one culture only. Human sequences are the Swiss-Prot entries looked up by gene name; the clone may be another isoform. NSP2 values were corrected by the authors for a growth advantage. Listed are human proteins with a hit and a random twelfth of the others.

Columns and labels:
Assay in all cases: yeast fitness gain over the viral ORF with no human partner (scaled fitness); higher = more likely to interact
SARS-CoV-2 E = target: SARS-CoV-2 E
Protocol: (§1)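 Split mouse DHFR complementation in pooled diploid yeast: human ORFeome clones carry one fragment and viral ORFs the other; barcoded lineages compete in 1 µg/mL methotrexate and fitness is read by barcode sequencing in up to three cultures.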

SARS-CoV-2 M = target: SARS-CoV-2 M
Protocol: as §1

SARS-CoV-2 N = target: SARS-CoV-2 N
Protocol: as §1

SARS-CoV-2 NSP1 = target: SARS-CoV-2 NSP1
Protocol: as §1

SARS-CoV-2 NSP10 = target: SARS-CoV-2 NSP10
Protocol: as §1

SARS-CoV-2 NSP12 = target: SARS-CoV-2 NSP12
Protocol: as §1

SARS-CoV-2 NSP13 = target: SARS-CoV-2 NSP13
Protocol: as §1

SARS-CoV-2 NSP14 = target: SARS-CoV-2 NSP14
Protocol: as §1

SARS-CoV-2 NSP15 = target: SARS-CoV-2 NSP15
Protocol: as §1

SARS-CoV-2 NSP16 = target: SARS-CoV-2 NSP16
Protocol: as §1

SARS-CoV-2 NSP2 = target: SARS-CoV-2 NSP2
Protocol: as §1

SARS-CoV-2 NSP4 = target: SARS-CoV-2 NSP4
Protocol: as §1

SARS-CoV-2 NSP5 = target: SARS-CoV-2 NSP5
Protocol: as §1

SARS-CoV-2 NSP6 = target: SARS-CoV-2 NSP6
Protocol: as §1

SARS-CoV-2 NSP7 = target: SARS-CoV-2 NSP7
Protocol: as §1

SARS-CoV-2 NSP8 = target: SARS-CoV-2 NSP8
Protocol: as §1

SARS-CoV-2 NSP9 = target: SARS-CoV-2 NSP9
Protocol: as §1

SARS-CoV-2 ORF10 = target: SARS-CoV-2 ORF10
Protocol: as §1

SARS-CoV-2 ORF3A = target: SARS-CoV-2 ORF3A
Protocol: as §1

SARS-CoV-2 ORF3B = target: SARS-CoV-2 ORF3B
Protocol: as §1

SARS-CoV-2 ORF6 = target: SARS-CoV-2 ORF6
Protocol: as §1

SARS-CoV-2 ORF7A = target: SARS-CoV-2 ORF7A
Protocol: as §1

SARS-CoV-2 ORF7B = target: SARS-CoV-2 ORF7B
Protocol: as §1

SARS-CoV-2 ORF8 = target: SARS-CoV-2 ORF8
Protocol: as §1

SARS-CoV-2 ORF9B = target: SARS-CoV-2 ORF9B
Protocol: as §1

[1] = target: SARS-CoV-2 ORF9Bwu (the 73-codon ORF)
Protocol: as §1

SARS-CoV-2 S = target: SARS-CoV-2 S
Protocol: as §1

Binder | yeast fitness gain (SARS-CoV-2 E) | yeast fitness gain (SARS-CoV-2 M) | yeast fitness gain (SARS-CoV-2 N) | yeast fitness gain (SARS-CoV-2 NSP1) | yeast fitness gain (SARS-CoV-2 NSP10) | yeast fitness gain (SARS-CoV-2 NSP12) | yeast fitness gain (SARS-CoV-2 NSP13) | yeast fitness gain (SARS-CoV-2 NSP14) | yeast fitness gain (SARS-CoV-2 NSP15) | yeast fitness gain (SARS-CoV-2 NSP16) | yeast fitness gain (SARS-CoV-2 NSP2) | yeast fitness gain (SARS-CoV-2 NSP4) | yeast fitness gain (SARS-CoV-2 NSP5) | yeast fitness gain (SARS-CoV-2 NSP6) | yeast fitness gain (SARS-CoV-2 NSP7) | yeast fitness gain (SARS-CoV-2 NSP8) | yeast fitness gain (SARS-CoV-2 NSP9) | yeast fitness gain (SARS-CoV-2 ORF10) | yeast fitness gain (SARS-CoV-2 ORF3A) | yeast fitness gain (SARS-CoV-2 ORF3B) | yeast fitness gain (SARS-CoV-2 ORF6) | yeast fitness gain (SARS-CoV-2 ORF7A) | yeast fitness gain (SARS-CoV-2 ORF7B) | yeast fitness gain (SARS-CoV-2 ORF8) | yeast fitness gain (SARS-CoV-2 ORF9B) | yeast fitness gain [1] | yeast fitness gain (SARS-CoV-2 S)
TSPAN5, P62079 (protein) MSGKHYKGPEVSCCIKYFIFGFNVIFWFLGITFLGIGLWAWNEKGVLSNISSITDLGGFDPVWLFLVVGGVMFILGFAGCIGALRENTFLLKFFSVFLGIIFFLELTAGVLAFVFKDWIKDQLYFFINNNIRAYRDDIDLQNLIDFTQEYWQCCGAFGADDWNLNIYFNCTDSNASRERCGVPFSCCTKDPAEDVINTQCGYDARQKPEVDQQIVIYTKGCVPQFEKWLQDNLTIVAGIFIGIALLQIFGICLAQNLVSDIEAVRASW | inactive: 0.257 | inactive: 0.0781 | inactive: 0.0457 | inactive: -0.0424 | inactive: 0.0332 | inactive: -0.0595 | inactive: 0.0443 | inactive: 0.172 | inactive: 0.0159 | inactive: -0.0876 | inactive: -0.164 | inactive: 0.492 | inactive: 0.00945 | inactive: 0.12 | inactive: 0.0588 | inactive: -0.0757 | inactive: 0.0472 | inactive: -0.0167 | inactive: 0.0996 | inactive: -0.0399 | inactive: -0.00351 | inactive: 0.592 | active: 0.27 | inactive: -0.0371 | inactive: 0.056 | inactive: 0.081 | inactive: 0.0242
TUBG2, Q9NRH3 (protein) MPREIITLQLGQCGNQIGFEFWKQLCAEHGISPEGIVEEFATEGTDRKDVFFYQADDEHYIPRAVLLDLEPRVIHSILNSPYAKLYNPENIYLSEHGGGAGNNWASGFSQGEKIHEDIFDIIDREADGSDSLEGFVLCHSIAGGTGSGLGSYLLERLNDRYPKKLVQTYSVFPYQDEMSDVVVQPYNSLLTLKRLTQNADCVVVLDNTALNRIATDRLHIQNPSFSQINQLVSTIMSASTTTLRYPGYMNNDLIGLIASLIPTPRLHFLMTGYTPLTTDQSVASVRKTTVLDVMRRLLQPKNVMVSTGRDRQTNHCYIAILNIIQGEVDPTQVHKSLQRIRERKLANFIPWGPASIQVALSRKSPYLPSAHRVSGLMMANHTSISSLFESSCQQFDKLRKRDAFLEQFRKEDMFKDNFDEMDRSREVVQELIDEYHAATQPDYISWGTQEQ | inactive: 0.0476 | inactive: 0.00564 | inactive: 0.02 | inactive: -0.0298 | inactive: 0.0391 | inactive: 0.0328 | inactive: 0.0601 | inactive: 0.0777 | inactive: -0.0433 | inactive: 0.00282 | inactive: -0.109 | inactive: 0.0595 | inactive: 0.0276 | inactive: 0.00297 | inactive: -0.0217 | inactive: 0.000993 | inactive: -0.012 | inactive: 0.0233 | inactive: 0.0599 | inactive: 0.102 | inactive: 0.0543 | inactive: -0.00877 | inactive: 0.0382 | inactive: -0.0396 | inactive: 0.00779 | inactive: -0.0671 | inactive: 0.0103
RCBTB2, O95199 (protein) MEEELPLFSGDSGKPVQATLSSLKMLDVGKWPIFSLCSEEELQLIRQACVFGSAGNEVLYTTVNDEIFVLGTNCCGCLGLGDVQSTIEPRRLDSLNGKKIACLSYGSGPHIVLATTEGEVFTWGHNAYSQLGNGTTNHGLVPCHISTNLSNKQVIEVACGSYHSLVLTSDGEVFAWGYNNSGQVGSGSTVNQPIPRRVTGCLQNKVVVTIACGQMCCMAVVDTGEVYVWGYNGNGQLGLGNSGNQPTPCRVAALQGIRVQRVACGYAHTLVLTDEGQVYAWGANSYGQLGTGNKSNQSYPTPVTVEKDRIIEIAACHSTHTSAAKTQGGHVYMWGQCRGQSVILPHLTHFSCTDDVFACFATPAVTWRLLSVEPDDHLTVAESLKREFDNPDTADLKFLVDGKYIYAHKVLLKIRCEHFRSSLEDNEDDIVEMSEFSYPVYRAFLEYLYTDSISLSPEEAVGLLDLATFYRENRLKKLCQQTIKQGICEENAIALLSAAVKYDAQDLEEFCFRFCINHLTVVTQTSGFAEMDHDLLKNFISKASRVGAFKN | – | inactive: 0.0974 | – | inactive: 0.0214 | – | inactive: 0.103 | inactive: 0.0429 | inactive: 0.0791 | – | inactive: 0.0277 | inactive: 0.0867 | inactive: 0.0466 | inactive: 0.106 | – | – | inactive: -0.0754 | inactive: 0.067 | inactive: -0.0925 | – | inactive: 0.0309 | inactive: 0.00184 | – | inactive: 0.0166 | inactive: 0.000257 | inactive: 0.0326 | – | inactive: -0.044
SLC35B3, Q9H1N7 (protein) MDLTQQAKDIQNITVQETNKNNSESIECSKITMDLKFNNSRKYISITVPSKTQTMSPHIKSVDDVVVLGMNLSKFNKLTQFFICVAGVFVFYLIYGYLQELIFSVEGFKSCGWYLTLVQFAFYSIFGLIELQLIQDKRRRIPGKTYMIIAFLTVGTMGLSNTSLGYLNYPTQVIFKCCKLIPVMLGGVFIQGKRYNVADVSAAICMSLGLIWFTLADSTTAPNFNLTGVVLISLALCADAVIGNVQEKAMKLHNASNSEMVLYSYSIGFVYILLGLTCTSGLGPAVTFCAKNPVRTYGYAFLFSLTGYFGISFVLALIKIFGALIAVTVTTGRKAMTIVLSFIFFAKPFTFQYVWSGLLVVLGIFLNVYSKNMDKIRLPSLYDLINKSVEARKSRTLAQTV | – | inactive: 0.0376 | – | – | inactive: 0.0341 | inactive: 0.00933 | inactive: -0.0919 | – | – | – | inactive: -0.0969 | – | inactive: -0.047 | inactive: -0.0709 | inactive: -0.0643 | inactive: -0.0843 | inactive: 0.0731 | inactive: 0.00907 | – | inactive: 0.187 | inactive: -0.0628 | inactive: -0.0289 | inactive: 0.0132 | inactive: 0.0523 | inactive: 0.00701 | inactive: 0.00499 | inactive: -0.0317
